{"source": "PubChem BioAssay AID504832", "about": "(National Center for Advancing Translational Sciences (NCATS), 2011)", "note": "Hit rate of the full screen: of about 310,000 compounds, about 18,000 (5.8%) were called active. The inconclusive results got no clear call from the source; some entries with a clear call stand among them for comparison. Calls follow the shape of the dose curve; as a rule, active = well fitted inhibition curve with a large enough effect; inconclusive = small, poorly fitted or top-dose-only effect, or another doubt; inactive = no such curve, though single readings can be large or run the other way. No potency is given beside an inconclusive call; the fits are too rough. A structure can be active in one record and inactive in another. Potency is read from the fitted curve at half-maximal effect; tags tell the direction and shape of the fitted curve.", "data": [{"test": "Primary qHTS for delayed death inhibitors of the malarial parasite plastid, 48 hour incubation", "conditions": "P. falciparum luciferase growth in erythrocytes; series mostly up to 28.7 µM", "how_it_was_run": "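Firefly luciferase activity from engineered P. falciparum reports growth; inhibitors lower the luminescent signal. Cultures contained 2% hematocrit erythrocytes at 0.1% final parasitemia.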", "values": [{"compound": "COc1ccccc1/C(O)=C(\\C#N)c1nc2ccccc2[nH]1", "Potency": "inactive"}, {"compound": "O=C(Cc1cc(=O)[nH][nH]1)N/N=C/C(Cl)=C/c1ccccc1", "Potency": "active: 1.17 µM"}, {"compound": "Cc1ccc(N2CC(C(=O)Nc3nnc(SCCC4OCCO4)s3)CC2=O)cc1C", "note": "(configuration not stated)", "Potency": "inconclusive [inhibitor, single point]"}, {"compound": "O=C(O)c1cc(S(=O)(=O)Nc2cccc(S(=O)(=O)N3CCCC3)c2)ccc1Cl", "Potency": "inconclusive [inhibitor, full curve, poor fit]"}, {"compound": "COc1ccccc1N1CCN(C(=O)c2ccc3c(c2)CCN3S(C)(=O)=O)CC1", "Potency": "inactive"}, {"compound": "O=C(Nc1cc(S(=O)(=O)N2CCOCC2)ccc1N1CCCC1)c1cc(F)c(F)cc1Cl", "Potency": "inconclusive [inhibitor, partial curve, poor fit]"}, {"compound": "CCOC(=O)COc1cc(O)c2c(=O)cc(-c3ccccc3)oc2c1", "Potency": "inconclusive [inhibitor, single point]"}, {"compound": "COC(=O)C1=C(c2ccc(OC(F)(F)F)cc2)C[C@@H]2CC[C@H]1N2C(=O)N1CCC(O)CC1", "Potency": "inconclusive [inhibitor, single point]"}, {"compound": "COc1ccc(CCN(C)C(=O)c2cc(=O)c3ccccc3o2)cc1OC", "Potency": "inconclusive [inhibitor, full curve, poor fit]"}, {"compound": "Cc1sc2ncnc(N3CCC(C(=O)NNC(=O)c4ccc(F)cc4)CC3)c2c1C", "Potency": "active: 11.7 µM"}, {"compound": "CC(C)C(=O)NC(c1cccs1)c1cc([N+](=O)[O-])c2cccnc2c1O", "note": "(configuration not stated)", "Potency": "inconclusive [inhibitor, single point]"}, {"compound": "CC1CCCN(S(=O)(=O)c2ccc([N+](=O)[O-])cc2)C1", "note": "(configuration not stated)", "Potency": "inconclusive [inhibitor, partial curve, poor fit]"}, {"compound": "COc1cccc(CNS(=O)(=O)c2ccc(S(=O)(=O)NC3CC3)cc2)c1", "Potency": "inconclusive [inhibitor, partial curve, poor fit]"}, {"compound": "COc1ccccc1Nc1nc(NCC(C)C)nc(N)c1[N+](=O)[O-]", "Potency": "inconclusive [inhibitor, full curve]"}, {"compound": "CCOc1cccc(C(=O)Nc2cccc(-c3nc4ncccc4o3)c2C)c1", "Potency": "inactive"}, {"compound": "O=C1CCCc2ccccc2N1Cc1ccc(Cl)cc1", "Potency": "inconclusive [inhibitor, single point]"}, {"compound": "C=CCn1c(SCC(=O)Nc2ccc(F)cc2)nc2ccccc2c1=O", "Potency": "inconclusive [inhibitor, full curve, poor fit]"}, {"compound": "O=C(CCNC(=O)c1ccc(Cl)cc1)Nc1ccccc1N1CCCCC1", "Potency": "inconclusive [inhibitor, single point]"}, {"compound": "CCC(C)(C)n1nnnc1C(c1ccc2ncccc2c1)N1CCN(c2ccc(O)cc2)CC1", "note": "(configuration not stated)", "Potency": "inconclusive [inhibitor, partial curve, poor fit]"}, {"compound": "Cc1ccccc1Nc1ccc2nonc2c1[N+](=O)[O-]", "Potency": "inactive"}, {"compound": "CCCOC(=O)c1ccc(NC(=O)c2ccc(Br)o2)cc1", "Potency": "inconclusive [inhibitor, single point]"}, {"compound": "COc1ccc(C2=Nn3c(C)nnc3SC2)cc1", "Potency": "inactive"}, {"compound": "CCc1nnc(NC(=O)CN2C(=O)CCC2=O)s1", "Potency": "inactive"}, {"compound": "C/C(=N\\Nc1cc(C(F)(F)F)ccc1Cl)c1ccncc1", "Potency": "inconclusive [inhibitor, partial curve]"}, {"compound": "O=C(CN1C(=O)COc2ccccc21)N1CCOCC1", "Potency": "inactive"}, {"compound": "Oc1c(Cl)cc(Cl)cc1/C=N/Nc1ncc(Br)cn1", "Potency": "active: 0.0928 µM"}, {"compound": "O=C(Nc1ccccc1)c1ccccc1NS(=O)(=O)c1ccc(Cl)s1", "Potency": "inconclusive [inhibitor, single point]"}, {"compound": "CCOC(=O)C1=C(c2ccccc2)N=C2SCC(=O)N2C1c1cccc(OC)c1", "note": "(configuration not stated)", "Potency": "inconclusive [inhibitor, single point]"}, {"compound": "C[N+](C)(C)c1ccc(/C=N/Nc2nc(Cl)c(C#N)c(Cl)c2Cl)cc1", "Potency": "active: 2.08 µM"}, {"compound": "CCOc1cc(/C=C/c2cc(C(F)(F)F)[nH]c(=O)n2)ccc1O", "Potency": "inconclusive [inhibitor, single point]"}, {"compound": "O=C(O)c1cccnc1Sc1ncnc2sc3c(c12)CCC3", "Potency": "inactive"}, {"compound": "CCC(NC(=O)c1oc2ccccc2c1COC)c1ccc(OC)cc1", "note": "(configuration not stated)", "Potency": "inconclusive [inhibitor, partial curve]"}, {"compound": "CCOc1ccc(NC(=O)CSC2=NN3CCCC(=O)N=C3S2)cc1", "Potency": "inconclusive [inhibitor, single point]"}, {"compound": "COc1ccc(Nc2nc(N)c([N+](=O)[O-])c(N3CCOCC3)n2)cc1", "Potency": "inconclusive [inhibitor, single point]"}, {"compound": "O=C(COC(=O)c1cc(Cl)cc(Cl)c1)NCCN1C(=O)CSC1=O", "Potency": "inconclusive [inhibitor, single point]"}, {"compound": "COc1cccc(-c2cc(C(=O)N3CCN(c4ncccn4)CC3)c3ccccc3n2)c1", "Potency": "inconclusive [inhibitor, single point]"}, {"compound": "CCN(CC(=O)Nc1c(F)cccc1F)C(=O)CSCC(=O)Nc1cc(C)on1", "Potency": "inactive"}]}]}
